{
  "source": "paper PMC4468182",
  "about": "“Murine Efficacy and Pharmacokinetic Evaluation of the Flaviviral NS5 Capping Enzyme 2-Thioxothiazolidin-4-One Inhibitor BG-323” (PLoS ONE, 2015)",
  "test_system": "Caco-2 cells",
  "test": "Caco-2 cell permeability assay",
  "protocol": "BG-323 stock in DMSO was diluted to a final concentration of 5 μM in Hanks Buffered Salt Solution (HBSS) with 1% DMSO. The assay system was a Transwell system containing confluent monolayers of 21-28-day-old Caco-2 cells with 1% bovine serum albumin in HBSS in the receiver well and both apical and basolateral sides at pH 7.4. Monolayer quality was tested using an internal control prior to use by verifying trans-epithelial electrical resistance measurements and calculating the apparent permeability coefficient (Papp) for the control compound prior to monolayer use. Each side of the monolayer, apical for A to B assessment and basolateral for B to A assessment, was dosed twice and resulting flow through was sampled after 120 min. Influx and efflux of BG-323 was quantified using LC-MS/MS with a minimum 4 point standard curve. Percent recovery and the Papp were determined for BG-323 in each direction. Efflux ratio (Papp B to A) / (Papp A to B) was also calculated.",
  "data": [
    {"smiles": "CC(C)(C)c1ccc(/C=C2/SC(=S)N(CCC(=O)O)C2=O)cc1", "note": "[BG-323, (E)-{3-[5-94-tert-butylbenzylidene0-4-oxo-2-thioxo-1,3-thiazolidin-3-yl]propanoic acid}]", "values": [
      {"measurement": "Permeability Classification", "result": "High (high when App is ≥ 1.0 x 10^−6 cm/s^)"},
      {"measurement": "Significant Efflux", "result": "NO (Significant efflux occurs when the efflux ratio is ≥ 3 and Papp (B to A) ≥ 1.0 x 10^−6 cm/s)"}
    ]}
  ]
}
